{
  "source": "PubChem BioAssay AID686979",
  "about": "(National Center for Advancing Translational Sciences (NCATS), 2013)",
  "note": "Screen size: about 420,000 compounds; about 50,000 (12%) were called active. Inconclusive means that the source gave no clear call. Such entries were picked first, then a sample of the others. Calls come from the whole dose curve; as a rule, active = well fitted inhibition curve with a large enough effect; inconclusive = small, poorly fitted or top-dose-only effect; inactive = flat fitted curve, though single readings scatter. No potency is given beside an inconclusive call; the fits are too rough. % is set by controls: 0 for no effect and ±100 for the full control effect; potency is the fitted concentration of half-maximal effect; tags give direction and shape of the fitted curve.",
  "data": [
    {"assay": "qHTS for Inhibitors of human tyrosyl-DNA phosphodiesterase 1 (TDP1): qHTS in cells in presence of CPT; note: nearly all actives have a fitted effect of over 55% in size", "details": "chicken DT40 Tdp1-/-;hTDP1 cells + 20 nM CPT, ATP luminescence, 48 h; activity change, negative = growth inhibition: at 46.2 µM (top of the series) unless noted", "in_short": "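Cell growth measured by CellTiter-Glo luminescence after a minimum 48 h, 37 C compound exposure with 20 nM CPT in Tdp1-knockout DT40 cells stably expressing hTDP1, seeded 400/well; qHTS titration format.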", "values": [
      {"compound": "Cc1noc(C(=O)NCc2cccnc2)c1Cl", "Potency": "inactive"},
      {"compound": "C[C@H]1CN([C@@H](C)CO)C(=O)c2cc(-c3cccc(C#N)c3)cnc2O[C@H]1CN(C)C(=O)c1ccccn1", "Potency": "inactive"},
      {"compound": "O=C1CCCCC1(CCc1ccncc1)CCc1ccncc1", "Potency": "active: 18.4 µM"},
      {"compound": "CCCCC(=O)Nc1nnc(SCC(=O)NCC2CCCO2)s1", "note": "(stereo not given)", "Potency": "inactive"},
      {"compound": "CCC(=O)N(CCC(c1ccco1)c1ccccc1OC)Cc1cccs1", "note": "(stereo not given)", "Potency": "inconclusive [inhibitor, single point]"},
      {"compound": "Cc1ccc(-c2nn(CCC(=O)O)cc2/C=C\\C(=O)c2ccc(Br)cc2)cc1", "Potency": "active: 11.6 µM"},
      {"compound": "O=C(/C(N=Nc1cccc(C(F)(F)F)c1)=C(/O)c1cccs1)C(F)(F)F", "Potency": "inconclusive [inhibitor, single point]"},
      {"compound": "Cc1ccc(SCc2nc(-c3ccc(C(=O)Nc4cc(C)ccc4C)cc3)oc2C)cc1", "Potency": "active: 8.2 µM"},
      {"compound": "O=C(Nc1nnc(C2CC(=O)N(c3ccc(Cl)cc3)C2)s1)c1ccco1", "note": "(stereo not given)", "Potency": "inactive"},
      {"compound": "CCOC(=O)Cc1csc(SCC(=O)Nc2cccc(Cl)c2)n1", "Potency": "inconclusive [inhibitor, single point]"},
      {"compound": "O=C(CN1CCC(n2nnc3cc(C(F)(F)F)ccc32)CC1)NNC(=O)c1ccco1", "Potency": "inactive"},
      {"compound": "COc1cc(=O)n2c(c1C(=O)N(C)Cc1nonc1C)CCN(C(=O)c1cc(C)ccc1C)CC2", "Potency": "inactive"},
      {"compound": "COc1cc(NC(=S)Nc2ccccn2)cc(OC)c1", "Potency": "inconclusive [inhibitor, single point]"},
      {"compound": "CC(=O)N1CCC2(CC1)CCN(C(c1ccccc1)c1ccccc1)CC2", "Potency": "inconclusive [inhibitor, single point]"},
      {"compound": "O=C(c1ccco1)N1CCN(C2CC(=O)N(c3ccc(C(F)(F)F)cc3)C2=O)CC1", "note": "(stereo not given)", "Potency": "inactive"},
      {"compound": "O=C(Nc1ccc2c(c1)C(=O)N(CC1CCCO1)C2=O)c1cccc(Br)c1", "note": "(stereo not given)", "Potency": "inconclusive [inhibitor, single point]"},
      {"compound": "Nc1ccc(C(=O)OCC(=O)NC2CC2)cc1[N+](=O)[O-]", "Potency": "inactive"},
      {"compound": "CSc1ccccc1OCc1cc(C(=O)NCc2cccc(C)n2)no1", "Potency": "inactive"},
      {"compound": "Cc1nc2c(-c3ccccc3)c(C)nn2c(C)c1CCC(=O)Nc1ccccc1F", "Potency": "active: 18.4 µM"},
      {"compound": "Cc1nc2nc(SCC(=O)NCCc3ccc(Cl)cc3)nn2c(C)c1Cc1ccccc1Cl", "Potency": "inconclusive [inhibitor, single point]"},
      {"compound": "Cc1ccccc1C1=CCN(c2ncc(NC(=O)c3ccc(Cl)cc3)cc2C(=O)O)CC1", "Potency": "inconclusive [inhibitor, single point]"},
      {"compound": "O=C(CC1C(=O)NCCN1CCCc1ccccc1)NCCc1ccccc1F", "note": "(stereo not given)", "Potency": "inactive"},
      {"compound": "C#CCNC(=O)c1cc2c(Br)ccc(Br)c2nc1N", "Potency": "inactive"},
      {"compound": "CC(C)(C)c1nnc2sc(SCC(=O)c3ccc(Cl)cc3)nn2c1=O", "Potency": "inactive"},
      {"compound": "C(=N\\Nc1ncnc2sc3c(c12)CCC3)/c1ccncc1", "Potency": "inconclusive [inhibitor, single point]"},
      {"compound": "CCCCC[C@H](O)/C=C/C=C\\CCCCCCCC(=O)O", "Potency": "inconclusive [inhibitor, single point]", "activity change, negative = growth inhibition": "inactive: 2.99% [at 0.628 µM]"},
      {"compound": "CCOc1ccc(N2C(=O)CC(Sc3nc(-c4cccs4)cc(C(F)(F)F)c3C#N)C2=O)cc1", "note": "(stereo not given)", "Potency": "inconclusive [inhibitor, single point]"},
      {"compound": "CCOC(=O)C1CCCN(C(=O)c2cccnc2Oc2ccccc2)CC1", "note": "(stereo not given)", "Potency": "inactive"},
      {"compound": "CC1(C(=O)NS(=O)(=O)C2CC2)CCCN(C(=O)Cc2ccc(F)cc2)C1", "note": "(stereo not given)", "Potency": "inconclusive [inhibitor, single point]"},
      {"compound": "COCCN1CCN(Cc2nc(C3(c4ccc(C)cc4)CCCC3)no2)CC1", "Potency": "inactive"},
      {"compound": "CCCS(=O)(=O)NC(=O)C1(C)CCN(C(=O)c2ccccc2Br)C1", "note": "(stereo not given)", "Potency": "inactive"},
      {"compound": "Cn1nc([N+](=O)[O-])nc1Oc1ccccc1F", "Potency": "inactive"},
      {"compound": "C/C(=N\\N=C(N)N)c1ccc(C)c(C)c1", "Potency": "active: 18.4 µM"},
      {"compound": "CC(=O)Oc1ccc2ccccc2c1C(NC(=O)Cc1ccccc1)c1ccc(Cl)cc1", "note": "(stereo not given)", "Potency": "inconclusive [inhibitor, single point]"},
      {"compound": "COc1ccc(C(=O)NCCC(=O)N2CCC3(CC2)NCCc2[nH]cnc23)cc1", "Potency": "inconclusive [inhibitor, single point]"},
      {"compound": "COc1cc(OC)cc(-c2nc3ccccc3c(=O)n2OC(=O)c2ccc(C)c(C)c2)c1", "Potency": "inconclusive [inhibitor, single point]"},
      {"compound": "Cc1cc(C)cc(OCC(=O)Nc2ccncc2)c1", "Potency": "inactive"},
      {"compound": "CC(=O)c1ccc(N2CCN(C(=O)CCn3cnc4onc(-c5ccc(F)cc5)c4c3=O)CC2)cc1", "activity change, negative = growth inhibition": "inconclusive: -39.3% [inhibitor]"},
      {"compound": "CC(Sc1nc(-c2ccccc2)cc(C(F)(F)F)n1)C(=O)N1CCCC1", "note": "(stereo not given)", "activity change, negative = growth inhibition": "inconclusive: -30.6% [inhibitor]"},
      {"compound": "CCOc1ccc(NC(=O)c2ccc(NC(=O)COC(=O)c3ccc(NC(=O)CC#N)cc3)cc2)cc1", "Potency": "inactive"},
      {"compound": "CO[C@H]1C[C@@H]2CC[C@@H](C)[C@@](O)(O2)C(=O)C(=O)N2CCCC[C@H]2C(=O)OC([C@H](C)C[C@@H]2CC[C@@H](O)[C@H](OC)C2)CC(=O)[C@H](C)/C=C(\\C)[C@@H](O)[C@@H](OC)C(=O)[C@H](C)C[C@H](C)/C=C/C=C/C=C/1C", "note": "(stereo not given in full)", "Potency": "active: 0.0103 µM"},
      {"compound": "O=C(Cn1c(=O)oc2ccccc21)N1CCN(c2ccccc2)CC1", "Potency": "inactive"},
      {"compound": "O=C(Nc1cccc(C(=O)N2CCCC2)c1)c1ccccc1", "Potency": "inactive"},
      {"compound": "Cc1ccc(N2CCN(/N=C/c3ccccc3[N+](=O)[O-])CC2)cc1", "Potency": "inconclusive [inhibitor, single point]"},
      {"compound": "O=C(CCc1nnc(-c2ccsc2)o1)N1CCCCC1CCn1ccnc1", "note": "(stereo not given)", "Potency": "inactive"},
      {"compound": "CC(=O)N(CC(O)CN(C(C)=O)c1c(I)c(C(=O)NCC(O)CO)c(I)c(C(=O)NCC(O)CO)c1I)c1c(I)c(C(=O)NCC(O)CO)c(I)c(C(=O)NCC(O)CO)c1I", "note": "(stereo not given)", "Potency": "inactive"},
      {"compound": "CC(C)C1C(=O)N(Cc2cn(CCC3OCCCO3)nn2)CCS(=O)(=O)N1Cc1ccc(-c2ccc(F)nc2)cc1", "note": "(stereo not given)", "Potency": "inconclusive [inhibitor, single point]"},
      {"compound": "COc1cc(/C=C/C(=O)Nc2ccc(N3CCCCC3)c(S(=O)(=O)Nc3ccccc3Cl)c2)cc(OC)c1OC", "Potency": "inconclusive [inhibitor, single point]"},
      {"compound": "CCOc1ccccc1CNCc1c(C(=O)O)n(Cc2ccc(F)cc2)c2cc(C)ccc12", "Potency": "active: 13 µM"},
      {"compound": "CCOc1ccc(Oc2ccc(C(F)(F)F)cc2NC(=O)C2=COCCO2)cc1", "Potency": "inconclusive [inhibitor, single point]"},
      {"compound": "Cc1csc(NC(=O)CSc2nncc(=O)n2N)n1", "Potency": "inactive"},
      {"compound": "COc1ccc(C2C=C(c3ccccc3)Nc3ncnn32)cc1", "note": "(stereo not given)", "Potency": "active: 18.4 µM"},
      {"compound": "Cc1cc(C)c(C)c(S(=O)(=O)ON2C(=O)c3ccccc3C2=O)c1C", "Potency": "active: 2.59 µM"},
      {"compound": "CCCn1c(C(O)c2ccc(OC)c(OC)c2)nc2ccccc21", "note": "(stereo not given)", "Potency": "inconclusive [inhibitor, partial curve]"},
      {"compound": "O=C(Nc1c(-c2ccccc2)nc2ccccn12)c1ccccc1F", "Potency": "inconclusive [inhibitor, single point]"},
      {"compound": "CCOc1ccc(-n2c(SCc3ccc(C(=O)OC)o3)nc3c(c2=O)SCC3)cc1", "Potency": "inconclusive [inhibitor, single point]"},
      {"compound": "COc1cc2c(cc1OC)C(c1cccc(F)c1)CC(=O)N2", "note": "(stereo not given)", "Potency": "inactive"},
      {"compound": "Cc1ccc(C(=O)OCC(=O)Nc2ccccc2N2CCOCC2)cc1", "activity change, negative = growth inhibition": "inconclusive: -31.4% [inhibitor]"},
      {"compound": "Cc1ccc(-c2noc(-c3cc(-c4ccc(F)cc4)n[nH]3)n2)cc1", "Potency": "inactive"},
      {"compound": "COc1cccc2c1OC1(C)CC2NC(=O)N1c1cccc(C(=O)N2CCN(c3ccccc3)CC2)c1", "note": "(stereo not given)", "activity change, negative = growth inhibition": "inconclusive: -34.4% [inhibitor]"},
      {"compound": "CCS(=O)(=O)Nc1ccc(Cc2ccc(NS(=O)(=O)CC)cc2)cc1", "Potency": "inconclusive [inhibitor, partial curve]"},
      {"compound": "C/C(=N\\NC(=O)c1ccco1)c1cc(Cl)sc1Cl", "Potency": "inconclusive [inhibitor, partial curve]"},
      {"compound": "CCN(CC)c1ccc2cc(-c3nc(-c4cc5ccccc5oc4=O)cs3)c(=O)oc2c1", "Potency": "inactive"},
      {"compound": "Cc1cc(-c2csc(N)n2)c(C)n1-c1ccc(Cl)c(Cl)c1", "Potency": "inconclusive [inhibitor, single point]"},
      {"compound": "CCn1cc(C(=O)NCCc2ccc(C)cc2)c(=O)c2cc(S(=O)(=O)N3CCc4ccccc4C3)ccc21", "Potency": "inconclusive [inhibitor, partial curve]"},
      {"compound": "Cc1ccc(C)c(S(=O)(=O)Nc2ccccc2C(=O)Nc2cc(C)on2)c1", "Potency": "active: 16.4 µM"},
      {"compound": "COc1ccc(C(=O)NC(=S)N2CCN(c3ccccc3OC)CC2)cc1OC", "Potency": "inactive"},
      {"compound": "Nc1nc(N)c(N=Nc2ccc(Cl)cc2)c(=O)[nH]1", "Potency": "inconclusive [inhibitor, partial curve]"},
      {"compound": "O=C(NCc1ccccn1)[C@@H]1CCCN1C(=O)[C@@H]1CCCN1C(=O)c1c(F)cccc1F", "Potency": "inactive"},
      {"compound": "O=C(Cc1c[nH]c2ccccc12)OCC(=O)c1ccccc1", "Potency": "inactive"},
      {"compound": "CCc1cccc(CC)c1NC(=O)COC(=O)C1(c2ccc(Cl)cc2)CCCC1", "activity change, negative = growth inhibition": "inconclusive: -31.5% [inhibitor]"},
      {"compound": "CC(N)CCCP(=O)(O)O", "note": "(stereo not given)", "Potency": "inactive"},
      {"compound": "Cc1ccc(-c2nc3n(n2)Cc2ccccc2-3)cc1", "Potency": "inconclusive [inhibitor, single point]"},
      {"compound": "COc1ccc(N2C(=O)/C(=C\\c3ccco3)N=C2SCC(=O)NC(C)(C)C)cc1Cl", "Potency": "inconclusive [inhibitor, single point]"}
    ]}
  ]
}
